This is an account of results in paper PMC6021437.

Sequences of proteins named here, by UniProt entry; tags and fusion partners are left off. A change or cut given only in a name is not applied to a line headed by its entry. A line that says so, or that is headed by a name, gives the form on record, which may keep a tag or linker.
UniProt Q3KNJ2: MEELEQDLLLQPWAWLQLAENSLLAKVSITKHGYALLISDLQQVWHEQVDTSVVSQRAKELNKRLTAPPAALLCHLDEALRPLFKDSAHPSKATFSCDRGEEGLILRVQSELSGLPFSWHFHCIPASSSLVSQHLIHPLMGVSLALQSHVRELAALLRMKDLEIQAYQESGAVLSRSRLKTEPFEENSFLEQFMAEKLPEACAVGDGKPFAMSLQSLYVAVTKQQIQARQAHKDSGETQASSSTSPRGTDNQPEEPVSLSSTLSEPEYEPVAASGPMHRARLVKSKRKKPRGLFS
3xFlag-XLF (mouse) K160D/4KA (Q3KNJ2, form named): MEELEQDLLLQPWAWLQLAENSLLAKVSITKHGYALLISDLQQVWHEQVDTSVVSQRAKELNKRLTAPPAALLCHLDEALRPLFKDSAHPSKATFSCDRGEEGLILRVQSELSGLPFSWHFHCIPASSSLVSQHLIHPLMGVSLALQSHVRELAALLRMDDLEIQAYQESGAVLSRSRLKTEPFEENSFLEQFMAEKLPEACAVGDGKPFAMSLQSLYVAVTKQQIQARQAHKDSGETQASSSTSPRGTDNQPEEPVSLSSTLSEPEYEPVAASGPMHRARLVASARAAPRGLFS
3xFlag-XLF (mouse) L115A/4KA (Q3KNJ2, form named): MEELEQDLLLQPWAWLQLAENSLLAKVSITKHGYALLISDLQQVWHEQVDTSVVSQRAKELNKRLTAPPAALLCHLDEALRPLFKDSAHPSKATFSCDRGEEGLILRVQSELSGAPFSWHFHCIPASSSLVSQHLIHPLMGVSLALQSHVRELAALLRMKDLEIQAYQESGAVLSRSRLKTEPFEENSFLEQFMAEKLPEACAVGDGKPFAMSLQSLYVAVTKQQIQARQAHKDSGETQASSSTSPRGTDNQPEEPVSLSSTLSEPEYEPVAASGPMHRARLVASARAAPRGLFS
3xFlag-XLF (mouse) R178Q/4KA (Q3KNJ2, form named): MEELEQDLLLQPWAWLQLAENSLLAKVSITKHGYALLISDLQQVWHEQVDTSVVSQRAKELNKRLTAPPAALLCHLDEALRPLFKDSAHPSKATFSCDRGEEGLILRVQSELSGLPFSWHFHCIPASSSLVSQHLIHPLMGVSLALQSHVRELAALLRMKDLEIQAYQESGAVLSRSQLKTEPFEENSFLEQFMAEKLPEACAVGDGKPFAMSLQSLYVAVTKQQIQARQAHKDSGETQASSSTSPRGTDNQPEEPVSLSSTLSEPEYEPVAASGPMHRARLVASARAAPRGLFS
UniProt Q924T3: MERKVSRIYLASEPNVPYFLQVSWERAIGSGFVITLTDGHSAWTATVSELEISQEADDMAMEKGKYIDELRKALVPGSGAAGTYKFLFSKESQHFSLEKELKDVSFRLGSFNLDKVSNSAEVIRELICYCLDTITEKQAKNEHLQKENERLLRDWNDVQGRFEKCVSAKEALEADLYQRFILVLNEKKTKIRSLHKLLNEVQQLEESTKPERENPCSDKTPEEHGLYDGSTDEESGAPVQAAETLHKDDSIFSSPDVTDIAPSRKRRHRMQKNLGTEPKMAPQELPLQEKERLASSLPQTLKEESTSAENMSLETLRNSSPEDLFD

Common to all, as to assay: co-IP; Flag-IP (anti-FLAG M2 magnetic beads, overnight at 4 °C) from lysates of Xlf-/- mESCs co-transfected with 3xFlag-XLF WT or mutant and pCAGGS-HA-XRCC4; NETN buffer (20 mM TRIS pH 8.0, 100 mM NaCl, 1 mM EDTA, 0.5% IGEPAL, 1.25 mM dithiothreitol) with phosphatase inhibitor; immunoblot for XRCC4
Test [1] addresses 3xFlag-XLF (mouse) 4KA (K284A; K286A; K288A; K289A) (mouse) (UniProt Q3KNJ2).
Test [2] has as its target 3xFlag-XLF (mouse) K160D (mouse) (UniProt Q3KNJ2).
The target of test [3] is 3xFlag-XLF (mouse) K160D/4KA (mouse) (UniProt Q3KNJ2).
Test [4] concerns the target 3xFlag-XLF (mouse) L115A/4KA (mouse) (UniProt Q3KNJ2).
Test [5] addresses 3xFlag-XLF (mouse) R178Q (mouse) (UniProt Q3KNJ2).
Test [6] concerns the target 3xFlag-XLF (mouse) R178Q/4KA (mouse) (UniProt Q3KNJ2).
For test [7], the target named is 3xFlag-XLF (mouse), wild type (mouse) (UniProt Q3KNJ2).

No constants are given. Whether binding was seen depends on the method and setting. In cells and extracts the contact can be indirect. Some results given as binding are weak or reduced against the parent protein; the word gives no strength.

For HA-XRCC4 (from UniProt Q924T3 1-326), the binding result in test [1] is on record as “binds”; in test [2], “binds”; in test [3], “binds”; in test [4] it was “no binding”; in test [5], “binds”; in test [6] it was “binds”. The binding entry in test [7] is “binds”.
